# Experimental data reported in PubChem BioAssay (NCI).
# A structure can be active in one record and inactive in another.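 Plates (96-well) were seeded with cells, treated with compound at one concentration, and incubated for 48 hours before percent growth was determined.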 A number of entries come with more than one value. This is not the full list of results. There may be further records. How the source made its calls: active means growth percent below 10; inactive means the rest. The screen tested this drug many times, at the concentration stated with the values; each value is one run. Counts like (3×) count equal records among those shown.
# Test system: SN12C renal
# Test: NCI-60 one-dose screen, 48 h (100 = growth as untreated, 0 = no growth, -100 = all killed)
smiles,measurement,setting,value
COc1cccc2c1C(=O)c1c(O)c3c(c(O)c1C2=O)C[C@@](O)(C(=O)CO)C[C@@H]3OC1CC(N)C(O)C(C)O1 (stereo not given in full),growth,"0.25 µM, runs of 2012","inactive: 26.2, 15.7, 28.3, 21.2, 24.2, 34.7, 41.2, 25.8 (2×), 27.1, 24.7, 21.3, 24.1, 28.7, 25.9, 16.4, 29.4, 23.8, 41.8, 35, 31.1 (2×), 29.5 (3×), 27.9, 28.4, 27.5, 27.7, 32.4, 29.8, 25.2 (2×), 18.8, 33.3, 28.5, 28 (2×), 25.3 (2×), 40.2, 36.2, 34.5, 41.7, 47.3, 39.7, 43.6, 46.4, 44.2, 38.3, 40.9, 38.2, 42.4, 47.6, 25.4, 25, 22.2, 26.8, 26.9, 22.6, 19, 21.4, 20.7%"
same,growth,"0.25 µM, runs of 2013","inactive: 20.4 (2×), 22, 24.3 (2×), 23.7, 40.3, 32.9 (2×), 31.1, 29.9, 30.5, 28.5 (2×), 34.8, 33.5, 40.2, 28.6, 34.1, 35.6, 24.7 (2×), 33.2, 31.5, 27, 32.8, 27.5, 24.1, 26.2 (2×), 25.8, 27.7, 23.3, 32.5, 29.4, 28.2, 28.4 (2×), 25.3, 24.9, 30.2, 36.9, 29.6, 29.2, 39, 37.1, 20.7, 23.9, 22.1 (2×), 26.6, 30.1, 19, 41, 18.8, 28.1, 12.2, 21, 20.3, 26.1, 19.2, 10.1, 22.7% and active: -23.5, 7.88, 5.67, 2.31, 9.46%"
same,growth,"0.25 µM, runs of 2014","inactive: 34.4, 22.1 (2×), 22.2 (2×), 11.8, 12.2, 12.8, 17.5 (2×), 19.4, 19.3, 14.5 (2×), 10.2, 20.4 (2×), 25.3, 21.5 (2×), 20.7, 18.9 (2×), 18.2, 20.8, 14.7, 27.7, 28.6, 24.1, 21.4, 19.5, 14.1, 15.6, 10.1 (2×), 14.9 (2×), 18.7, 11.6, 15.8, 20.1, 20.6, 22.4, 18.6 (2×), 36.3, 26, 10.7, 12.6, 16.5, 14.2, 22.6, 10.5, 13.4, 15, 16, 25.9, 22.7% and active: 6.18, 5.65, 9.58, -11.8, -13.9, -0.933, 3.26, 9.93, 7.84, 0.962, 9.07%"
same,growth,"0.25 µM, runs of 2015","inactive: 31.2, 12.4, 14.2, 14.1 (2×), 16 (2×), 14.3, 10.6, 23.8, 23.7, 14, 15.5, 24.7, 18.1, 19.7 (3×), 20.9, 20.3, 14.5 (2×), 19.2, 32.5, 37.3, 21.2, 17 (2×), 15, 17.2 (2×), 18.8 (4×), 18.4, 22.8 (3×), 18.7, 16.8, 16.5, 18.6, 11.9, 16.3, 34.8, 29.5, 27.5, 10.8 (2×), 13.6, 11.5 (2×), 21.6, 36.8, 30.6, 21.7, 22.1, 30.7, 15.6, 16.4, 21, 27.4, 28.1, 31.5% and active: 5.4, 7.73, 9.01, 4.01%"
same,growth,"0.25 µM, runs of 2016","inactive: 14, 37.4, 24.9 (2×), 21 (2×), 24.8, 23.8, 27.3 (2×), 23.4, 25.5, 18.9 (2×), 15.8 (2×), 15.5, 22.4, 12.1, 19.9 (2×), 23, 18.4 (3×), 15.7, 22.3, 20.7 (2×), 14.9, 18.2, 18.8, 15, 19.2, 17, 18, 20.1 (2×), 20.9 (2×), 20.4, 21.6 (2×), 22.2 (2×), 20.8 (2×), 18.5, 19 (2×), 30.7, 19.4, 22.5, 21.3 (2×), 21.5, 23.3, 25.4, 24.2, 26.6, 28.4, 26.2, 27.1, 27, 26.7, 26.8, 19.3, 25.9, 20.5%"
same,growth,"0.25 µM, runs of 2017","inactive: 21.7, 27.4, 18.6 (3×), 19.7 (2×), 14.1 (2×), 13.5 (2×), 14 (3×), 17.9 (2×), 15.5 (3×), 17 (3×), 16.4, 15.6, 16.3 (3×), 19, 18.8, 13.7 (2×), 12.3, 12, 14.4 (2×), 18.5 (2×), 17.5, 14.7, 18.4 (2×), 20.8 (2×), 15.8, 18 (2×), 13.9, 13.8 (3×), 16.5 (2×), 18.2, 20.7, 22.6, 20.1, 23, 15.7, 16, 19.5, 15.3, 11.6, 12.8, 12.5, 14.8%"
same,growth,"0.25 µM, runs of 2018","inactive: 15.7, 20.5, 13.1 (2×), 21, 18.8 (2×), 19, 18.5 (2×), 19.5, 16.5, 23.2, 18.6 (2×), 21.5 (3×), 12, 17.4, 15.1 (2×), 13.8, 17.2, 16.4, 17.9, 24.9, 18.2, 16.8, 19.4, 18, 19.2, 20.3 (2×), 18.7 (2×), 17.5, 15.3, 20.7, 16.3%"
same,growth,"0.25 µM, runs of 2019","inactive: 13.5 (2×), 16.3 (2×), 10.3, 10.6, 14.9, 15.7 (2×), 19.3, 18.6, 16.7, 20.8 (2×), 21.6, 13.8, 12.9 (2×), 13.7, 12.8, 17, 15.6, 17.9 (2×), 17.5, 20.3, 17.4, 15, 17.2, 15.8 (2×), 16.8, 14.1 (2×), 11.9, 10.8, 14.3, 13.9, 26, 18% and active: 7.75, 9.09, 9.93, 9.22%"
same,growth,"0.25 µM, runs of 2020","active: 8.02% and inactive: 10.7, 11.8 (2×), 11.1, 22.4, 18.6, 16.7, 14.1, 18.8, 20.7, 20.1, 28.1, 23.9, 19.5 (2×), 15.4, 21.4, 16.8%"
same,growth,"0.25 µM, runs of 2021","inactive: 27, 46.4, 29.5, 22.5, 23.2, 19 (2×), 16.4, 22.6 (2×), 16.5, 15.8, 16 (2×), 18.6 (2×), 18.1 (2×), 20.6, 18.9 (2×), 20.4, 18.5, 17.2, 14.2, 14.9, 14.8, 12.5, 17.9, 14.5, 15.7, 15.5, 16.3, 23, 34.1, 31.3, 13.1, 10.8, 15.1 (2×), 13.5, 14, 21.4, 11.3% and active: 9.13%, 2.48%, 3.68%"
same,growth,"0.25 µM, runs of 2022","active: 0.258, -2.5, 9.23, -7, 0.787, 9.41, 8.29, 7.85% and inactive: 11.1, 12.4 (2×), 14.1, 14.8, 20.6, 10.5, 13.9, 12.2, 43.1, 51.6, 15, 43.8, 69.8, 12.1, 15.8, 16.3, 15.7, 13.3%"
same,growth,"25 µM, runs of 1991","active: -17, -18.6, -14.8, -12.7, -20.2, -10.7, -26.5, -20.5, -33.1, 4.19, -4.12, -25.8, -26.4, -24.2, -39.9, -26.8, -21%"
same,growth,"25 µM, runs of 1992","active: -20.6, -5.39, -15.1, -31.1, -8.22, -13.4, -5.47, -25.4, -47.3, -18.5, -18.7, -21.1 (4×), -32.3, -19.7, -12.7, -29, -12.2, -17.5, 4.37, -23.8 (2×), -43.6, -24.8, -24.4 (2×), -61.1, -27.7, -30.8, 2.43, -31.8, 2.73, -36.2 (2×), -20.9, -32.6, -14.5, -40.8, -36.9 (2×), -11.1, -27.9, 1.86, -11.7, 4.68, -32, -19.2, -28.1, -25.9, -36.8, -46.5, -54.1, -56.9, 2.8, -26.9 (2×), -45.8, 6.34, -3.93, -6.46, -49.2, -54.4, -45.7, -34.4, -10.5, -11.8, -7.57, 4.81, -8.77, 2.12, -2.35, -20.4, -13.7, -23.7, -68.6, -36.3, -3.25, -39.8, -22.2, -23.3, -29.5 (2×), 5.97, 6.32, -9.52, -48.8, -18.1, -42.2, -31.7, -46.6, -14.4, 3.52, -50.1, -27.1, -43.9, -31.3, -13.5, -44.9, -30.6, -38.5, -15.8, -54.8, -26, -42.1, -41, -20.7, -24, -34.8, -32.2% and inactive: 11.1, 12.6, 22.8, 10.8%"
same,growth,"25 µM, runs of 1993","active: -27, 2.68, -22.7, -45.9, -47.2 (2×), -61.6, -15.3, 1.52, -35.3, -56.3, -26.7, -24.5, -42.4, 0.94, -22.9, -30.1, -21, -52.1, -35.4, -29.3, -37.8, -23.6, -31.5, -35.6 (2×), -49, -18.2, 0.808, -21.8, -60, -13.7, -29.7, -14.1, -49.1, -38.8, 5.56, -23.8, -37, -38.5, 3.25, -27.2, -59.1, -12.3, -39.8, -44.6%"
same,growth,"25 µM, runs of 1994","active: 6.45, -2.63, -29.9, -14.4, -52.7, -42.4, -13, -45.6, 3.99, -0.4, -40.5, -29.8, -14.8, -27.6, -22.1, 2.4, -40.8, -28.2, -45.8, -26, -39.6, -46.1, -30.3, 3.52, -42.7, -29.5, -22.2, -7.96, -61.6, -16.5% and inactive: 103%"
